Changes are numbered by the printed parent chain; changes in the protein carry UniProt numbers. The list shows a part of the results.
T1: RBFOX1 RRM RbFoxmut (Fox-RRM*) (Homo sapiens, UniProt Q9NWB1 109-208, R118D;E147R;N151S;E152T)
T1 sequence: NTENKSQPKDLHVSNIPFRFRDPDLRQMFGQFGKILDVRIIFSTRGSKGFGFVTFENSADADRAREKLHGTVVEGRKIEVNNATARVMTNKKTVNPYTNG

B1: GGCAAAA (DNA:RNA)
RNA: GGGAGACCGGAAUUCAGAUUGUCCGGCAAAAUUAAAUCCCGUCGUAGCCACCA
DNA 1: CAATCTGAATTCCGGTCTCCC
DNA 2: TGGTGGCTACGACGGGATT
B2: GAAGAGC (DNA:RNA)
RNA: B1 RNA with G26A, C27A, A28G, A30G, A31C
DNA 1: CAATCTGAATTCCGGTCTCCC
DNA 2: TGGTGGCTACGACGGGATT
B3: UGUAGUG (DNA:RNA)
RNA: B1 RNA with G25U, C27U, A29G, A30U, A31G
DNA 1: CAATCTGAATTCCGGTCTCCC
DNA 2: TGGTGGCTACGACGGGATT
B4: CGCCAGG (DNA:RNA)
RNA: B1 RNA with G25C, A28C, A30G, A31G
DNA 1: CAATCTGAATTCCGGTCTCCC
DNA 2: TGGTGGCTACGACGGGATT
B5: GAUCCAU (DNA:RNA)
RNA: B1 RNA with G26A, C27U, A28C, A29C, A31U
DNA 1: CAATCTGAATTCCGGTCTCCC
DNA 2: TGGTGGCTACGACGGGATT
B6: UUUGACU (DNA:RNA)
RNA: B1 RNA with G25U, G26U, C27U, A28G, A30C, A31U
DNA 1: CAATCTGAATTCCGGTCTCCC
DNA 2: TGGTGGCTACGACGGGATT
B7: UCGCACU (DNA:RNA)
RNA: B1 RNA with G25U, G26C, C27G, A28C, A30C, A31U
DNA 1: CAATCTGAATTCCGGTCTCCC
DNA 2: TGGTGGCTACGACGGGATT
B8: GAUUUGU (DNA:RNA)
RNA: B1 RNA with G26A, C27U, A28U, A29U, A30G, A31U
DNA 1: CAATCTGAATTCCGGTCTCCC
DNA 2: TGGTGGCTACGACGGGATT
B9: AUUCAUG (DNA:RNA)
RNA: B1 RNA with G25A, G26U, C27U, A28C, A30U, A31G
DNA 1: CAATCTGAATTCCGGTCTCCC
DNA 2: TGGTGGCTACGACGGGATT
B10: GUAAUUU (DNA:RNA)
RNA: B1 RNA with G26U, C27A, A29U, A30U, A31U
DNA 1: CAATCTGAATTCCGGTCTCCC
DNA 2: TGGTGGCTACGACGGGATT
B11: UACUCCA (DNA:RNA)
RNA: B1 RNA with G25U, G26A, A28U, A29C, A30C
DNA 1: CAATCTGAATTCCGGTCTCCC
DNA 2: TGGTGGCTACGACGGGATT
B12: AUUGCAG (DNA:RNA)
RNA: B1 RNA with G25A, G26U, C27U, A28G, A29C, A31G
DNA 1: CAATCTGAATTCCGGTCTCCC
DNA 2: TGGTGGCTACGACGGGATT
B13: GUUUGAU (DNA:RNA)
RNA: B1 RNA with G26U, C27U, A28U, A29G, A31U
DNA 1: CAATCTGAATTCCGGTCTCCC
DNA 2: TGGTGGCTACGACGGGATT
B14: GGUCUGA (DNA:RNA)
RNA: B1 RNA with C27U, A28C, A29U, A30G
DNA 1: CAATCTGAATTCCGGTCTCCC
DNA 2: TGGTGGCTACGACGGGATT
B15: GUCUCUA (DNA:RNA)
RNA: B1 RNA with G26U, A28U, A29C, A30U
DNA 1: CAATCTGAATTCCGGTCTCCC
DNA 2: TGGTGGCTACGACGGGATT
B16: AUCCCCG (DNA:RNA)
RNA: B1 RNA with G25A, G26U, A28C, A29C, A30C, A31G
DNA 1: CAATCTGAATTCCGGTCTCCC
DNA 2: TGGTGGCTACGACGGGATT
B17: UAUCCUA (DNA:RNA)
RNA: B1 RNA with G25U, G26A, C27U, A28C, A29C, A30U
DNA 1: CAATCTGAATTCCGGTCTCCC
DNA 2: TGGTGGCTACGACGGGATT
B18: GUUUUCA (DNA:RNA)
RNA: B1 RNA with G26U, C27U, A28U, A29U, A30C
DNA 1: CAATCTGAATTCCGGTCTCCC
DNA 2: TGGTGGCTACGACGGGATT
B19: AAUACAA (DNA:RNA)
RNA: B1 RNA with G25A, G26A, C27U, A29C
DNA 1: CAATCTGAATTCCGGTCTCCC
DNA 2: TGGTGGCTACGACGGGATT
B20: CCUCAGU (DNA:RNA)
RNA: B1 RNA with G25C, G26C, C27U, A28C, A30G, A31U
DNA 1: CAATCTGAATTCCGGTCTCCC
DNA 2: TGGTGGCTACGACGGGATT
B21: AUUCUGG (DNA:RNA)
RNA: GGGAGACCGGAAUUCAGAUUGUCCAUUCUGGUUAAAUCCCGUCGUAGCCACCA
DNA 1: CAATCTGAATTCCGGTCTCCC
DNA 2: TGGTGGCTACGACGGGATT
B22: AUAACCA (DNA:RNA)
RNA: B21 RNA with U27A, C28A, U29C, G30C, G31A
DNA 1: CAATCTGAATTCCGGTCTCCC
DNA 2: TGGTGGCTACGACGGGATT
B23: GUUUUGC (DNA:RNA)
RNA: B21 RNA with A25G, C28U, G31C
DNA 1: CAATCTGAATTCCGGTCTCCC
DNA 2: TGGTGGCTACGACGGGATT
B24: UAAUUGG (DNA:RNA)
RNA: B21 RNA with A25U, U26A, U27A, C28U
DNA 1: CAATCTGAATTCCGGTCTCCC
DNA 2: TGGTGGCTACGACGGGATT
B25: AAGCCUC (DNA:RNA)
RNA: B21 RNA with U26A, U27G, U29C, G30U, G31C
DNA 1: CAATCTGAATTCCGGTCTCCC
DNA 2: TGGTGGCTACGACGGGATT
B26: CCGGGAG (DNA:RNA)
RNA: B21 RNA with A25C, U26C, U27G, C28G, U29G, G30A
DNA 1: CAATCTGAATTCCGGTCTCCC
DNA 2: TGGTGGCTACGACGGGATT
B27: AAUACCA (DNA:RNA)
RNA: B21 RNA with U26A, C28A, U29C, G30C, G31A
DNA 1: CAATCTGAATTCCGGTCTCCC
DNA 2: TGGTGGCTACGACGGGATT
B28: AAGAACU (DNA:RNA)
RNA: B1 RNA with G25A, G26A, C27G, A30C, A31U
DNA 1: CAATCTGAATTCCGGTCTCCC
DNA 2: TGGTGGCTACGACGGGATT
B29: GAUGGUU (DNA:RNA)
RNA: B21 RNA with A25G, U26A, C28G, U29G, G30U, G31U
DNA 1: CAATCTGAATTCCGGTCTCCC
DNA 2: TGGTGGCTACGACGGGATT
B30: GCUUCCG (DNA:RNA)
RNA: B21 RNA with A25G, U26C, C28U, U29C, G30C
DNA 1: CAATCTGAATTCCGGTCTCCC
DNA 2: TGGTGGCTACGACGGGATT
B31: UUAGUGC (DNA:RNA)
RNA: B21 RNA with A25U, U27A, C28G, G31C
DNA 1: CAATCTGAATTCCGGTCTCCC
DNA 2: TGGTGGCTACGACGGGATT

What follows are binders tested against T1, RBFOX1 RRM RbFoxmut (Fox-RRM*) (assay: EMSA; HiTS-Eq, 1 nM pool, 10 min; buffer printed only for the single-RNA assays: 10 mM Tris pH 7.5, 150 mM NaCl, 3.4 mM EDTA, 0.001% NP-40, 30 C). Details: tags: His6 N-terminal (pET28a); label: 5' 32P.
Procedure, shortened: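 A pool of RNA with 7 randomized nucleotides, 5′-radiolabelled and with DNA-annealed flanks, was equilibrated at 1 nM for 10 min in 50 µL with purified RbFox RRM, wild type or mutant, across increasing protein concentrations. Free RNA was separated by 8% native PAGE, excised, reverse-transcribed, barcoded by PCR and sequenced. Relative association constants were obtained from read-count changes of each RNA species versus the control reaction and normalised to the cognate motif.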

Binder	binding signal
B1	0.0682 KA relative to UGCAUGU
B2	0.0784 KA relative to UGCAUGU
B3	0.682 KA relative to UGCAUGU
B4	0.0982 KA relative to UGCAUGU
B5	0.0599 KA relative to UGCAUGU
B6	0.0705 KA relative to UGCAUGU
B7	0.0889 KA relative to UGCAUGU
B8	0.136 KA relative to UGCAUGU
B9	0.127 KA relative to UGCAUGU
B10	0.093 KA relative to UGCAUGU
B11	0.0704 KA relative to UGCAUGU
B12	0.106 KA relative to UGCAUGU
B13	0.2 KA relative to UGCAUGU
B14	0.293 KA relative to UGCAUGU
B15	0.122 KA relative to UGCAUGU
B16	0.0853 KA relative to UGCAUGU

Binder	binding signal
B17	0.128 KA relative to UGCAUGU
B18	0.0853 KA relative to UGCAUGU
B19	0.0807 KA relative to UGCAUGU
B20	0.0814 KA relative to UGCAUGU
B21	0.0721 KA relative to UGCAUGU
B22	0.142 KA relative to UGCAUGU
B23	0.116 KA relative to UGCAUGU
B24	0.0719 KA relative to UGCAUGU
B25	0.039 KA relative to UGCAUGU
B26	0.122 KA relative to UGCAUGU
B27	0.078 KA relative to UGCAUGU
B28	0.0822 KA relative to UGCAUGU
B29	0.0937 KA relative to UGCAUGU
B30	0.0906 KA relative to UGCAUGU
B31	0.125 KA relative to UGCAUGU
